Results taken from the supplement of paper PMC3334620.
The full ranking holds about 33,000 sequences; the median of “E-score (-0.5 to 0.5)” is about -0.011, and the highest 2% start at about 0.28. The list shows a part of the results.

biological target: T1, Gcr1 (UniProt P07261); test: PBM E-score (8-mer binding enrichment) (E-score (-0.5 to 0.5)); higher = stronger / more preferred TF binding; most listed sequences are background and not binding sites; conditions: protein concentration: 100 nM; construct: GST-full length
T1 sequence: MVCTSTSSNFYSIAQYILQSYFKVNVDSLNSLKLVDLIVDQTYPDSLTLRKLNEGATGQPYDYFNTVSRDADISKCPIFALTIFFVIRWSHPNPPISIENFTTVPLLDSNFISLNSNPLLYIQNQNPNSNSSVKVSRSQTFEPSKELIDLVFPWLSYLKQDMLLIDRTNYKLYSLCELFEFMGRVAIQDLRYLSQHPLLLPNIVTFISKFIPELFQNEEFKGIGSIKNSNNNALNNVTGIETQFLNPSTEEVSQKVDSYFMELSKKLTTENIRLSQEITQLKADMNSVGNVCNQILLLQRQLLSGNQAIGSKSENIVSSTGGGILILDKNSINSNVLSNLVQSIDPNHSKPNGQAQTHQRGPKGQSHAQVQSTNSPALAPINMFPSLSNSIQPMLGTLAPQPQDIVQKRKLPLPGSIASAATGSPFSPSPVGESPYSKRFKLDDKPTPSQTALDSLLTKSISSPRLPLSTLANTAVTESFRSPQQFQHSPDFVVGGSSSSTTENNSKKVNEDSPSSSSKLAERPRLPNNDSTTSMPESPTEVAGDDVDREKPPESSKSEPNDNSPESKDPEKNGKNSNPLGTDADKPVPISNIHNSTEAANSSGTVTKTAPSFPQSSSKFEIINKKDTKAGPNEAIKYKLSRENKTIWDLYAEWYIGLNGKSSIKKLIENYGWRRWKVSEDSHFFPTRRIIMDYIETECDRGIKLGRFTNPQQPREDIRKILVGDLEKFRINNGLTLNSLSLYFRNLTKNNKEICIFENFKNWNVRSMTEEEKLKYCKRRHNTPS
How it was run: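 GST-tagged yeast TFs (full-length or DNA-binding domain) were made by PURExpress in vitro transcription/translation and applied at about 100-200 nM to universal all-10-mer Agilent arrays. The arrays were made double-stranded by primer extension, on fresh or once-stripped slides. Bound protein was detected with fluorescent anti-GST, and scans were normalised with masliner. Each ungapped eight-base word, pooled with its reverse complement, received an E-score (modified Wilcoxon-Mann-Whitney statistic) from the Universal PBM Analysis Suite.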

Sequence | PBM E-score
CAGATTGA | -0.0838
GGTGGAGA | -0.232
CAATAGTG | 0.15
ATCTAGTG | 0.132
AGTAAGGG | -0.148
TGTCGAAA | -0.179
CGAACTGC | 0.087
CGACTTAA | 0.00479
AGAAACTG | -0.0761
GGCAATAA | -0.153
CTCCTGCC | -0.00864
CGCCTGGC | -0.118
ACAAGACG | 0.0879
CACACGTG | -0.0936
GAGCACCA | 0.207
CCGCCAAG | -0.0931
CATCCGTA | 0.0745
CAAGACTG | -0.134
GATCAAGC | -0.0969
AGGGGTGG | -0.0736
CCTGAGCC | 0.0888
ACATGGTC | -0.0999
AAACCGCT | -0.273
AATCTAAG | -0.0118
TCTTGGCA | 0.205

Sequence | PBM E-score
AGTTTAAT | 0.0173
CTACACCA | -0.0681
ATTCACCA | 0.083
CTTGTACA | 0.0263
ACACGTCT | 0.112
AAACGAGC | 0.116
CCAACATC | 0.038
TAGCCGGA | 0.00917
GGGCAAAC | -0.336
CCCAGAAA | 0.283
AGTTGTGG | 0.136
ACCAAGCC | -0.147
AAGGCTAC | -0.109
CGTTCTGC | -0.122
ACGTGTGG | -0.176
CTCGGCAC | -0.0534
CCAAGCTA | -0.0611
AAATAGAG | -0.031
CGGGAACA | 0.126
GAAGAGTA | -0.0196
AACGACAG | 0.022
GACGCCAA | 0.2
CCAAAATA | 0.204
ATGCGAAG | 0.223
ATACTGAG | 0.134

Sequence | PBM E-score
CATGTCAC | 0.0522
TCCCCCGA | -0.0585
AAAGGTAC | 0.137
AATCGATG | -0.0944
ATTAGAAG | 0.2
CAACAGAA | 0.031
CCAGGAGG | -0.069
CAGGCCAG | -0.207
CAGACAAG | -0.154
GATGGTTA | -0.0423
AAATCGAA | -0.0161
ATCCGAGG | -0.112
AGGTTGCA | 0.125
CGGGGTTC | 0.13
CAAATACG | 0.165
AACGAATG | 0.0444
CAGTATAC | 0.0383
AAAGGGAA | 0.102
CTAAATGC | 0.093
GGGGGAAA | -0.0544
CTGGTGGA | -0.00688
GGCGCCCA | 0.398
CCGTAAAG | 0.0627
AAATCATG | -0.0472
GAAAATAC | -0.0193

Sequence | PBM E-score
CCTTGTGC | -0.0712
CGCCGAGC | -0.138
CGTAGACA | -0.152
TGCCCCAA | -0.00246
GAGGTTAC | -0.105
ATTCAGCA | -0.212
CTTTTCAA | 0.0295
GGAGCCCC | 0.265
CAAAGAGC | -0.0142
ACCGCGTA | -0.162
GCTACTCA | 0.0222
ATACAGGA | 0.308
AACGATCT | -0.147
ACCATCGG | -0.00354
AGCGCACT | -0.194
CCAACGGA | 0.0308
CCGGTCAC | 0.0414
AGAAACTC | -0.149
CTCAACTC | 0.112
GCATAGAC | -0.15
AGAAACAT | 0.113
ACGTTCGG | -0.0346
GCACGAGC | 0.014
ACTGTTAG | -0.15
AGTCTACC | -0.0451

Sequence | PBM E-score
GCTCCGCC | 0.0324
AGGGACCA | 0.00709
AGCGCGCC | 0.16
ATGAGCAA | -0.0522
AAGACGAT | 0.0896
GCGTACTA | -0.16
ACAAGTGA | -0.145
CGAAGTGA | 0.0729
AGGACAGC | -0.262
GACACCCC | -0.0371
CACTAACC | 0.0105
TAACCGAA | 0.0338
CGCTTAAG | -0.0441
ACGGACTA | -0.163
GGTGAATA | 0.0632
AAACAGAC | 0.0356
CCGTCGCC | -0.0263
ATCTGATC | -0.0261
AATACTAA | 0.183
CCAAGAAA | 0.0208
TGCACGCA | -0.156
CATGCGTA | -0.0942
AGGGCATC | 0.129
AACGTTCA | -0.189
ATCAAAAT | -0.00678

Sequence | PBM E-score
GGTAGGAA | 0.116
AGCAATTG | 0.0399
ACGCAGCT | 0.308
GCGGTCTA | -0.146
CCAAGGTC | -0.0561
AAGCCGGC | -0.0637
AGCGTATA | 0.0272
ATATACTC | -0.0622
CACTATAA | 0.0785
CATCCAGG | 0.174
GGAACCAC | 0.284
AGTTTTGG | 0.25
AGCTCAGG | -0.0753
CCCCATAC | 0.036
CCTTGTAC | 0.0571
CGCTGATC | -0.0958
AAATCCGA | 0.108
CGTGGTAG | -0.133
GTGACCTA | -0.063
ATGTACCA | 0.191
GCCAGCCA | -0.0514
CCCTGGGA | -0.0318
CAACTACA | 0.104
GATGTGAC | 0.127
CACTCGAG | -0.128

Sequence | PBM E-score
GATCGATC | -0.267
CCTCCTCC | -0.222
GACATGGA | -0.0587
CCTGGAGA | -0.00605
CGGTGGAC | 0.00403
AGTCACCG | -0.0379
CAAGAAAA | 0.248
TACCCGCA | 0.228
CAATGGAG | -0.0973
AGAAAGCC | -0.0934
CTCTCCTC | -0.127
ACCCGCGG | -0.151
CGTTCTAC | -0.0602
AGCCTCGA | -0.141
GCTTACAA | -0.0662
AAAGGGAT | -0.0756
CCCTGAAG | -0.049
GACTTGAA | -0.00094
TAATGTAA | 0.0435
AGCAGCCA | 0.35
AGAAACCC | 0.0901
GGTACCCA | 0.18
